Source: PubChem BioAssay AID463173 (ICCB-Longwood Screening Facility, Harvard Medical School, 2010)
Screen size: about 52,000 compounds; about 4,300 (8.3%) were called active. Cut-off read from the data, not from the text of the source: active = survival mostly below about 52% (no sharp cut-off); inactive = mostly above about 56%. This is one part of the list.

test system: DeltatarO mutant; assay: growth inhibition of S. aureus wild type versus tarO mutant, primary screen, teichoic acid synthesis inhibitors, RN4220, OD600 (AID 463173); conditions: OD600, 18 h, stronger effect = lower value, screened at 18.75 µg/mL (by protocol)

Compound	survival
COc1ccc2nc3sc(C(=O)N4CCN(c5ccccc5)CC4)cc3cc2c1	inactive: 109%
CCN(CCCNC(=O)CSc1cc(=O)n(C)c2cc(Cl)ccc12)c1cccc(C)c1	inactive: 90%
Cc1c2cnn(-c3ccccc3)c(=O)c2c(C)n1CC(=O)N1CCN(c2ccc(F)cc2)CC1	inactive: 87%
COc1cc(-c2noc(-c3ccc(N4CCOCC4)c([N+](=O)[O-])c3)n2)cc(OC)c1OC	inactive: 66%
Cc1ccc(NC(=O)CSc2nc3ccccc3c3nc(CCn4cncc4C)nn23)c(C)c1	inactive: 75%
COc1cccc(-c2nc(CS(=O)(=O)CC(=O)Nc3cc(F)ccc3F)c(C)o2)c1	inactive: 60%
O=C(NCCN1CCOCC1)Nc1c[nH]c2ccccc2c1=O	inactive: 102%
Cc1ccc(OCC(=O)N(Cc2ccco2)Cc2ccco2)cc1	inactive: 50%
COc1ccc(-c2nnc(SCC(=O)NCc3ccccc3)nc2-c2ccc(OC)c(OC)c2)cc1OC	inactive: 73%
Cc1ccc(CN(Cc2ccco2)C(=O)COc2ccc(Cl)cc2Cl)cc1	inactive: 96%
O=C(O)CN1C(=O)S/C(=C\c2ccccc2)C1=O	inactive: 83%
O=C(CN(C(=O)Cn1nnc(-c2cccs2)n1)c1ccc2c(c1)OCCO2)NCC1CCCO1 (centres undefined)	inactive: 99%
CCOc1ccc(NC(=O)Cc2ccc(NC(=O)N3CCCCc4ccccc43)cc2)cc1	inactive: 73%
CC(C)(C)c1ccc(S(=O)(=O)c2cnc(SCC(=O)Nc3ccc(F)c(Cl)c3)[nH]c2=O)cc1	inactive: 85%
O=C1CCCCC(=O)c2ccccc2N1	inactive: 97%
CCOC(=O)c1cc(-c2ccc(F)cc2)n(CC(=O)NCc2ccc(OC)cc2)c1C	inactive: 75%
COC(=O)c1ccc([C@H]2Nc3ccc(S(=O)(=O)Nc4ccc(C)cc4)cc3[C@H]3C=CC[C@H]32)cc1	inactive: 60%
N#Cc1ccccc1S(=O)(=O)N1CCCC(c2nc3c(nnn3Cc3cccc(Cl)c3)c(=O)[nH]2)C1 (centres undefined)	inactive: 78%
CC(C)CCNC(=O)CN1C(=O)c2cccnc2Oc2ccccc21	inactive: 85%
CN(C)c1ccc(C(CNC(=O)c2ccccc2F)N2CCc3ccccc32)cc1 (centres undefined)	inactive: 105%
Cc1csc2nc(CCNS(=O)(=O)c3ccccc3)cn12	inactive: 79%
O=C(NCc1ccco1)c1c[nH]c2ccc(S(=O)(=O)Nc3ccc(F)cc3F)cc2c1=O	inactive: 87%
Cc1nn(-c2ccccc2)c2c1N(CCCC(=O)NCc1ccc(Cl)cc1)C(=O)CS2	inactive: 94%

Compound	survival
CCCCNc1nc2c(S(=O)(=O)c3ccc(Cl)cc3)nnn2c2ccsc12	inactive: 58%
CN1CCN(C(=O)c2cnn(-c3cccc(Cl)c3)c2C2CCN(C(=O)OC(C)(C)C)CC2)CC1	inactive: 95%
COc1cccc(CNC(=O)c2ccc3c(c2)N(Cc2ccc(C(F)(F)F)cc2)C(=O)c2ccccc2S3)c1OC	inactive: 108%
O=C(CSc1ccc(-c2cccs2)nn1)Nc1cccc(F)c1	inactive: 103%
CCN1CCN(CCCNC(=O)c2ccc3c(c2)sc2nc(-c4ccc(C)cc4)cn23)CC1	active: 26%
COc1ccc(-c2cc(C)no2)cc1S(=O)(=O)N1CC(C)Oc2ccccc21 (centres undefined)	active: -5%
Cc1ccc(NC(=O)NC2CCN(C(=O)N3CCOCC3)CC2)cc1	inactive: 69%
CCCn1c(=O)c2sccc2n2c(CCCC(=O)Nc3ccccc3F)nnc12	inactive: 89%
CN(C(=O)c1oc(=O)c2ccccc2c1-c1ccccc1)c1cccc(Cl)c1	inactive: 46%
COc1ccc(-n2c(SCC(=O)NCc3ccccc3)nc3n[nH]c(C)c3c2=N)cc1	inactive: 68%
CCOC(=O)Cn1c(=O)n(C2CCCCC2)c2nc(-c3cccc(C)c3)nc(C(N)=O)c21	inactive: 97%
O=C1CC(c2cccc(F)c2)c2c(n3ncnc3[nH]c2=O)N1 (centres undefined)	inactive: 65%
COc1cccc(N2CCN(C(=O)Cn3ncc4c(=O)oc5ccccc5c43)CC2)c1	inactive: 77%
CC(C)(C)c1ccc(S(=O)(=O)N2CCN(C(=O)c3cc(-c4ccc(Br)cc4)n[nH]3)CC2)cc1	inactive: 135%
O=C(CSc1nc(O)c(C/C=C/c2ccccc2)c(=O)[nH]1)Nc1cccc(F)c1	inactive: 84%
CCOc1ccc(NC(=O)c2noc3c2CSc2ccccc2-3)cc1	inactive: 70%
O=C(NCc1ccc(Cl)cc1)C1CCN(S(=O)(=O)c2ccc3c(c2)CCCN3C(=O)C2CCC2)CC1	inactive: 90%
COc1cc(-c2noc(-c3ccc(N4CCCCC4)c([N+](=O)[O-])c3)n2)cc(OC)c1OC	inactive: 57%
CCOCCc1nn2c(=O)cc(COC(=O)c3ccco3)nc2s1	inactive: 88%
O=C(Nc1ccc2oc(-c3cc(Br)ccc3Cl)nc2c1)c1ccc2ccccc2c1	inactive: 76%
COc1cccc(CNC(=O)c2nnc(Cc3ccc(Cl)cc3)o2)c1	inactive: 91%
Cc1cccc(-c2noc(-c3cc(-c4ccc(F)cc4)n[nH]3)n2)c1	inactive: 117%
COc1cccc(N2CCN(C(=O)Cn3ncc4c5ccccc5n(C)c4c3=O)CC2)c1	inactive: 78%

Compound	survival
O=C(O)c1coc2ccccc12	inactive: 76%
Cc1oc2ncn(C)c(=O)c2c1C(=O)NCc1ccccc1	inactive: 64%
CCN1CCN(C(=O)c2cccc(F)c2F)CC1	inactive: 85%
COc1cc(OC)cc(C(=O)Nc2nc(-c3nnn(-c4ccc(F)c(Cl)c4)c3C)ns2)c1	inactive: 77%
COc1cccc(CN2CCc3nc(N4CCN(C)CC4)ncc3C2)c1	inactive: 84%
COc1ccc(-n2nc(C(=O)N3CCN(c4cccc(C(F)(F)F)c4)CC3)c3c4ccccc4n(C)c3c2=O)cc1Cl	inactive: 129%
CCOc1ccc(CCNC(=O)Cc2ccc(NC(=O)N3CCSc4ncccc43)cc2)cc1	inactive: 96%
Cc1ccc(NC(=O)Nc2ccc3nc(N4CCN(C)CC4)cc(C)c3c2)cc1C	inactive: 101%
CCCOC(=O)c1ccc(Nc2nc3ccccc3nc2-n2nc(C)cc2C)cc1	active: 24%
C[C@@H](NC(=O)CN(c1ccccc1)S(=O)(=O)N(C)C)c1ccccc1	inactive: 82%
Cc1cccc(C)c1NC(=O)NC1(C(=O)N2CCCCC2)CCCCC1	inactive: 99%
CCOc1ccc(-c2cc(CCCC(=O)NCCc3ccc(OCC)c(OCC)c3)no2)cc1	inactive: 70%
CCN1CCN(C(=O)c2ccc3c(c2)N(Cc2ccccc2F)C(=O)c2ccccc2S3(=O)=O)CC1	inactive: 93%
Cc1ccccc1NC(=O)c1ccc(F)c(S(=O)(=O)NC2CCCC2)c1	inactive: 83%
CCCCCCc1nnc(NC(=O)CC)s1	inactive: 76%
CCN1C(=O)/C(=c2\s/c(=C3\Sc4ccc(OC)cc4N3C)c(=O)n2Cc2ccccc2)N(C)C1=S	inactive: 74%
O=C(CSc1nc(-c2ccco2)nc2cc(=O)[nH]n12)Nc1ccccc1F	inactive: 75%
COc1ccc2cc3cc(C(=O)Nc4ccccc4C)oc3nc2c1	inactive: 116%
COc1ccc(NC(=O)CSc2nc(C)cc(C)c2C(=O)Nc2cccc(C)c2)cc1	inactive: 92%
COc1cccc(C(=O)Nc2ccccc2-c2nnc(-c3ccc(C(C)(C)C)cc3)o2)c1	inactive: 77%
Cc1cccc(-n2ncc(C(=O)NCc3ccco3)c2C2CCN(C(=O)OC(C)(C)C)CC2)c1	inactive: 81%
Cc1ccc(S(=O)(=O)CCc2nc3ccccc3n2CCC#N)cc1	inactive: 105%
Cc1nc2cccnc2n1C1CCN(S(=O)(=O)c2ccc(C(C)C)cc2)CC1	inactive: 117%

Compound	survival
CCc1nn(CC(=O)NCCN(CC)CC)c(=O)c2cc3occc3n12	inactive: 119%
CCn1c(=O)c2cc(C(=O)N(C)c3cc(Cl)c(OC)cc3OC)sc2c2ccccc21	inactive: 80%
Cc1ccc(N2CCN(C(=O)c3c(C)oc4nc(C)nc(N5CCCC5)c34)CC2)c(C)c1	inactive: 102%
COc1ccc(NC(=O)c2sc3nc4c(cc3c2N)CCCCCC4)cc1Cl	inactive: 53%
CCOC(=O)c1cccc(NC(=O)N2CC(CC)Oc3ccccc32)c1 (centres undefined)	inactive: 54%
COC(=O)C1(C)NC(c2ccccc2C)C2C(=O)N(C)C(=O)C21 (centres undefined)	active: 54%
CC(=O)Nc1c(C(=O)Nc2ccccc2F)oc2ccccc12	inactive: 119%
CCc1ccc(Nc2nc3c(S(=O)(=O)c4cccc(Cl)c4)nnn3c3ccsc23)cc1	inactive: 43%
CC(C)Cc1cc(C(=O)O)nc(=O)[nH]1	inactive: 105%
O=C(Nc1ccccn1)c1ccccc1O	inactive: 95%
COC(=O)c1c(NC(=O)c2c(OC)cccc2OC)sc2c1CCCC2	active: 13%
CC1CCCCN1S(=O)(=O)c1ccc2[nH]c(=O)cc(C(=O)NCCc3ccc(Cl)cc3)c2c1 (centres undefined)	inactive: 67%
COc1cc(SC)ccc1C(=O)N1CCCC(C)C1 (centres undefined)	inactive: 76%
COc1cccc(NC(=O)CC2Oc3ccccc3NC2=O)c1 (centres undefined)	inactive: 83%
C=Cc1ccc(Cn2c(C(=O)OC)cc3sc(C)cc32)cc1	active: 27%
CCc1ccccc1N1C(=O)CC(N2CCc3ccccc32)C1=O (centres undefined)	inactive: 102%
CC(C)OCCCNC(=O)CN1C(=O)CSc2ccc(S(=O)(=O)N3CCOCC3)cc21	inactive: 99%
COc1cccc(NC(=O)c2oc3ccc(S(=O)(=O)N4CCOCC4)cc3c2C)c1	inactive: 78%
O=C(c1cccc([N+](=O)[O-])c1)N1CCN(CCc2ccncc2)CC1	inactive: 46%
CCOc1ccccc1NC(=O)c1nn(-c2ccc(OC)cc2)c(=O)c2c1c1ccccc1n2C	inactive: 90%
